Some of the results follow. The list includes weakly bound sequences.

The experiment addresses T1, MBP-FoxP3dN (UniProt Q99JB6).
T1 sequence: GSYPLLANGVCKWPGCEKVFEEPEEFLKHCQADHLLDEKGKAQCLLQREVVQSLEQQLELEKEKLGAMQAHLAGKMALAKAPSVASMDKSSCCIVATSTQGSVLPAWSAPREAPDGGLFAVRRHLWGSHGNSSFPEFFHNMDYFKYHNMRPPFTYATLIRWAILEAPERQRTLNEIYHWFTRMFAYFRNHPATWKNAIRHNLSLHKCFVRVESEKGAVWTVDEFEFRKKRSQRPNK
As to the kind of experiment: PD-seq (MBP pull-down with sequencing). As to conditions: 20 mM Tris-HCl pH 7.5, 100 mM NaCl, 1.5 mM MgCl2, 0.4 uM protein, 0.1 uM dsDNA library, 30 min, room temperature, amylose pull-down; high values mean tight binding; double strand, one strand shown.
Consider “GATGATTGTTCTCCCAGCTGATGAATTATTTCACTCGAGTAAACAAATTTTCCTAATCTTTCTGTTCAAGCGCCATCTAC”, for which the binding signal (RPM ratio (pull-down/input)) was 0.389.
Turning to “GATGATTGTTCTCCCAGCTGATGAATTCAAACTCTCGAGTAAACAAATTTTCCTAATCTTTCTGTTCAAGCGCCATCTAC”, the binding signal (RPM ratio (pull-down/input)) was found to be 0.412.
Under “GATGATTGTTCTCCCAGCTGATGAATTCGCTCCATCGAGTAAACAAATTTTCCTAATCTTTCTGTTCAAGCGCCATCTAC” stands 0.292; under “GATGATTGTTCTCCCAGCTGATGAATTGTAGCCCTCGAGTAAACAAATTTTCCTAATCTTTCTGTTCAAGCGCCATCTAC”, 0.759; under “GATGATTGTTCTCCCAGCTGATGAATTCGGATCATCGAGTAAACAAATTTTCCTAATCTTTCTGTTCAAGCGCCATCTAC”, 0.395.
With “GATGATTGTTCTCCCAGCTGATGAATTCCGCTGGTCGAGTAAACAAATTTTCCTAATCTTTCTGTTCAAGCGCCATCTAC” the figure was 0.76; with “GATGATTGTTCTCCCAGCTGATGAATTATCTGATTCGAGTAAACAAATTTTCCTAATCTTTCTGTTCAAGCGCCATCTAC”, 0.321.
For the sequence “GATGATTGTTCTCCCAGCTGATGAATTATCCGCTTCGAGTAAACAAATTTTCCTAATCTTTCTGTTCAAGCGCCATCTAC”, the binding signal (RPM ratio (pull-down/input)) is 0.348.
Take “GATGATTGTTCTCCCAGCTGATGAATTGATTTATTCGAGTAAACAAATTTTCCTAATCTTTCTGTTCAAGCGCCATCTAC”: the binding signal (RPM ratio (pull-down/input)) came to 2.58.
Consider “GATGATTGTTCTCCCAGCTGATGAATTTTTGACGTCGAGTAAACAAATTTTCCTAATCTTTCTGTTCAAGCGCCATCTAC”, for which the binding signal (RPM ratio (pull-down/input)) stood at 0.3.
With “GATGATTGTTCTCCCAGCTGATGAATTGATTCCGTCGAGTAAACAAATTTTCCTAATCTTTCTGTTCAAGCGCCATCTAC”, the binding signal (RPM ratio (pull-down/input)) is 0.334.
As to “GATGATTGTTCTCCCAGCTGATGAATTCCATGGATCGAGTAAACAAATTTTCCTAATCTTTCTGTTCAAGCGCCATCTAC”, the binding signal (RPM ratio (pull-down/input)) was found to be 0.268.
In the case of “GATGATTGTTCTCCCAGCTGATGAATTAATCCAATCGAGTAAACAAATTTTCCTAATCTTTCTGTTCAAGCGCCATCTAC”, the binding signal (RPM ratio (pull-down/input)) amounted to 0.273.
With “GATGATTGTTCTCCCAGCTGATGAATTGCACACCTCGAGTAAACAAATTTTCCTAATCTTTCTGTTCAAGCGCCATCTAC”, the binding signal (RPM ratio (pull-down/input)) amounted to 0.903.
With “GATGATTGTTCTCCCAGCTGATGAATTCTAGCCATCGAGTAAACAAATTTTCCTAATCTTTCTGTTCAAGCGCCATCTAC” the figure was 1.35.
With “GATGATTGTTCTCCCAGCTGATGAATTCATGCTATCGAGTAAACAAATTTTCCTAATCTTTCTGTTCAAGCGCCATCTAC”, the binding signal (RPM ratio (pull-down/input)) amounted to 0.992.
Turning to “GATGATTGTTCTCCCAGCTGATGAATTGTGCTGATCGAGTAAACAAATTTTCCTAATCTTTCTGTTCAAGCGCCATCTAC”, the binding signal (RPM ratio (pull-down/input)) turned out to be 2.
Under “GATGATTGTTCTCCCAGCTGATGAATTGAACCACTCGAGTAAACAAATTTTCCTAATCTTTCTGTTCAAGCGCCATCTAC” stands 0.461; under “GATGATTGTTCTCCCAGCTGATGAATTATGACGTTCGAGTAAACAAATTTTCCTAATCTTTCTGTTCAAGCGCCATCTAC”, 0.813.
Under “GATGATTGTTCTCCCAGCTGATGAATTGTAGAGTTCGAGTAAACAAATTTTCCTAATCTTTCTGTTCAAGCGCCATCTAC” stands 0.526; under “GATGATTGTTCTCCCAGCTGATGAATTTGGACCATCGAGTAAACAAATTTTCCTAATCTTTCTGTTCAAGCGCCATCTAC”, 0.601.
For the sequence “GATGATTGTTCTCCCAGCTGATGAATTTTAAGGGTCGAGTAAACAAATTTTCCTAATCTTTCTGTTCAAGCGCCATCTAC”, the binding signal (RPM ratio (pull-down/input)) turned out to be 0.237.
With “GATGATTGTTCTCCCAGCTGATGAATTATATTGGTCGAGTAAACAAATTTTCCTAATCTTTCTGTTCAAGCGCCATCTAC” the figure was 3.47; with “GATGATTGTTCTCCCAGCTGATGAATTTCTACGTTCGAGTAAACAAATTTTCCTAATCTTTCTGTTCAAGCGCCATCTAC”, 0.287; with “GATGATTGTTCTCCCAGCTGATGAATTTGAGAAGTCGAGTAAACAAATTTTCCTAATCTTTCTGTTCAAGCGCCATCTAC”, 0.184.
Turning to “GATGATTGTTCTCCCAGCTGATGAATTTCGCAGATCGAGTAAACAAATTTTCCTAATCTTTCTGTTCAAGCGCCATCTAC”, the binding signal (RPM ratio (pull-down/input)) worked out at 0.391.
Take “GATGATTGTTCTCCCAGCTGATGAATTATTCTGATCGAGTAAACAAATTTTCCTAATCTTTCTGTTCAAGCGCCATCTAC”: the binding signal (RPM ratio (pull-down/input)) was 0.247.
For “GATGATTGTTCTCCCAGCTGATGAATTCACTAGTTCGAGTAAACAAATTTTCCTAATCTTTCTGTTCAAGCGCCATCTAC”, the binding signal (RPM ratio (pull-down/input)) was 0.437.
As for “GATGATTGTTCTCCCAGCTGATGAATTTAACGCCTCGAGTAAACAAATTTTCCTAATCTTTCTGTTCAAGCGCCATCTAC”, the binding signal (RPM ratio (pull-down/input)) worked out at 0.628.
For “GATGATTGTTCTCCCAGCTGATGAATTTGAAACATCGAGTAAACAAATTTTCCTAATCTTTCTGTTCAAGCGCCATCTAC”, the binding signal (RPM ratio (pull-down/input)) was 0.457.
Turning to “GATGATTGTTCTCCCAGCTGATGAATTGTACGTCTCGAGTAAACAAATTTTCCTAATCTTTCTGTTCAAGCGCCATCTAC”, the binding signal (RPM ratio (pull-down/input)) worked out at 0.561.

For the origin of these results see publication PMC12820563.
